Laboratory results as given in article PMC7819943, “Rice protein-binding microarrays: a tool to detect cis-acting elements near promoter regions in rice”.
The list shows a part of the results.

target: T1, OsWOX13 (Oryza sativa, UniProt Q5QMM3 1-267); test: protein-binding microarray (RPBM); PBS, 2% BSA, 51.3 ng/ul salmon testes DNA, 50 uM zinc acetate, 200 nM TF, 25 C, 1 h; high values mean tight binding; conditions: protein: recombinant; tags: N-terminal polyhistidine and DsRed monomer fusion (pET32a); label: CyDye5-dUTP incorporated in the synthesized complementary strand; 3' TTTTT single-stranded linker to array surface; dsDNA, one strand shown
T1 sequence: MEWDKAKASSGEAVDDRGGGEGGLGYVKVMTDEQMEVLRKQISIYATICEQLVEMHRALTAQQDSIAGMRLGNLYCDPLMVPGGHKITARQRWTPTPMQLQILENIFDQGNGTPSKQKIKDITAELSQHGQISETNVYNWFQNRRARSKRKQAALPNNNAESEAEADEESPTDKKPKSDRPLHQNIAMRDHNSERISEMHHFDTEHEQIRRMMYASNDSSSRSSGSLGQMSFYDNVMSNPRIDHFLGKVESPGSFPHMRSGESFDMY
Summary of the method: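 Ni–NTA purification followed expression in E. coli BL21-CodonPlus of transcription factors fused N-terminally to a polyhistidine tag and DsRed. At 200 nM in PBS with 2% BSA, salmon testes DNA and 50 µM zinc acetate, the protein was incubated for 1 h at 25 °C with a custom Agilent array that had been primer-extended with Cy5-dUTP and blocked with 2% BSA. After washing, the array was read on an Axon 4000B scanner. The binding signal is per-feature fluorescence intensity in arbitrary units.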

| Sequence | binding signal |
| --- | --- |
| TTCAAATGGCATTAATTACAAAGGGAACGTAACTCATCTGCGGAGTCACCTAGTGCAG | 18700 fluorescence intensity (a.u.) |
| GAAAATAGTATGATTGAAAATGACGTAAAGTGAATAGACCCGGAGTCACCTAGTGCAG | 23000 fluorescence intensity (a.u.) |
| TTATTAACTGATGATCATCTACATGGTTGTTCTTACACTGCGGAGTCACCTAGTGCAG | 32700 fluorescence intensity (a.u.) |
| ATTCATTGGAAAATAATTGTTTGCGTCACGTGTGGATATCCGGAGTCACCTAGTGCAG | 6110 fluorescence intensity (a.u.) |
| TGTTGATTATATTCATGTATTTCTATAATGCTTTACAATTCGGAGTCACCTAGTGCAG | 17600 fluorescence intensity (a.u.) |
| CGGGCGACTAATTTTGTAAAATTTTGAAACACAAAATTAGCGGAGTCACCTAGTGCAG | 4760 fluorescence intensity (a.u.) |
| GCTTTAATTGGTTTGAGGTTGTATACTATTGGTTCGGCCTCGGAGTCACCTAGTGCAG | 35300 fluorescence intensity (a.u.) |
| AAATTATAGATTTAGTGTCAATTTAATCATAAAACTTGGACGGAGTCACCTAGTGCAG | 10200 fluorescence intensity (a.u.) |
| TGCACAAATTGGTATAATGATTTCTTGATGTTACAATATTCGGAGTCACCTAGTGCAG | 27700 fluorescence intensity (a.u.) |
| TTATCTAATCGCAGATAATTGCAGAGAAACTGTGATCTTTCGGAGTCACCTAGTGCAG | 6720 fluorescence intensity (a.u.) |
| ATGACATTTAATTTATGTGTCTATTCATGTCGAGAAGGCTCGGAGTCACCTAGTGCAG | 18600 fluorescence intensity (a.u.) |
| ATAATTTTGTTAATTTGTTACATGTATATGATGCATAATACGGAGTCACCTAGTGCAG | 32100 fluorescence intensity (a.u.) |
| ATCGCTGTCACGTTTTCCATCATCTTCCCCATCTACACGTCGGAGTCACCTAGTGCAG | 3920 fluorescence intensity (a.u.) |
| TATGTTAATTAGGCCGATAGAGCCAAAGTCTCGAACCAAACGGAGTCACCTAGTGCAG | 4230 fluorescence intensity (a.u.) |
| ATATATATATATATATATATAGACGTATTCCTGTATCCGCCGGAGTCACCTAGTGCAG | 11700 fluorescence intensity (a.u.) |
| ACGTAATTATAATTTATTTTATTATGAGTTGTTTTATCACCGGAGTCACCTAGTGCAG | 37000 fluorescence intensity (a.u.) |
| TCTTAATAGAGGGTTTCTAAAATATGTGGGTAATTTGTTGCGGAGTCACCTAGTGCAG | 5970 fluorescence intensity (a.u.) |
| AGGAATTGAAGGGTAAAACAGAGGATTGCAAAACACAGGACGGAGTCACCTAGTGCAG | 3260 fluorescence intensity (a.u.) |
| GAAATTCAAATTTCATTTGATGTTAAACGCGGATAGGGAGCGGAGTCACCTAGTGCAG | 3460 fluorescence intensity (a.u.) |
| ACAAAGATTGAAAATGGTGGTAAATTTACAATGGCCTCTTCGGAGTCACCTAGTGCAG | 31100 fluorescence intensity (a.u.) |
| ATTTGCTAATGAACTGAAATTTCTAATCTGAAACTCTGAACGGAGTCACCTAGTGCAG | 3820 fluorescence intensity (a.u.) |

| Sequence | binding signal |
| --- | --- |
| AAACTAATGAATGAATAAACATATTATATATTACCTCTGCCGGAGTCACCTAGTGCAG | 7830 fluorescence intensity (a.u.) |
| GTCTGAATAATTGCCACTTAAGCAGAGTACTGAAAAGTTACGGAGTCACCTAGTGCAG | 9240 fluorescence intensity (a.u.) |
| CCTACTTAAATTGGCTTAAAACATGCTGGGGCATCAGGTTCGGAGTCACCTAGTGCAG | 16100 fluorescence intensity (a.u.) |
| ATCGTAATAGAATATGTCACATTCGGTTTTGGCTCAAGTTCGGAGTCACCTAGTGCAG | 5710 fluorescence intensity (a.u.) |
| AGGGGATGGGGATGGGGATGGAGACGGGGACTTGGAACGACGGAGTCACCTAGTGCAG | 3880 fluorescence intensity (a.u.) |
| CATAATTGATCAAGCCATGCAAAACCCAAAGGAGAACCGTCGGAGTCACCTAGTGCAG | 51700 fluorescence intensity (a.u.) |
| TAGGATTGCAGATAACTTGATCATTATCCTAGTCGGGCCGCGGAGTCACCTAGTGCAG | 3840 fluorescence intensity (a.u.) |
| CATAACTGTATAAACATTCAGTAAAGAATTTCCGTTTACGCGGAGTCACCTAGTGCAG | 5600 fluorescence intensity (a.u.) |
| TTAAAACAATGGTGATAAATTGAATTGAGAGTGGTGGGGACGGAGTCACCTAGTGCAG | 6690 fluorescence intensity (a.u.) |
| ACAAATGTGGTGATCAATAATTAGTAGTACTTGTTTGTTGCGGAGTCACCTAGTGCAG | 9950 fluorescence intensity (a.u.) |
| ATCTCCAAAATTTTAAATTTTAATTAAAACCTAACTTACACGGAGTCACCTAGTGCAG | 6930 fluorescence intensity (a.u.) |
| CCATAGCTAGCTGCGCATGTGATTGATGCAAAGGAGGAACCGGAGTCACCTAGTGCAG | 4440 fluorescence intensity (a.u.) |
| CTTATCTGTCATGATTATCATTAGTTTTATGATAAACTTACGGAGTCACCTAGTGCAG | 22600 fluorescence intensity (a.u.) |
| CTAAATTAACGCTGGCAACACGAGTTCAGGGGTTGTAAAACGGAGTCACCTAGTGCAG | 6080 fluorescence intensity (a.u.) |
| CATGTAGTAATTATCTTCAATGGCAATGCAGCAGTATTTGCGGAGTCACCTAGTGCAG | 3520 fluorescence intensity (a.u.) |
| AATCACGTCCTTAATTAATCACGCGCTAATGGACCGCTCACGGAGTCACCTAGTGCAG | 14300 fluorescence intensity (a.u.) |
| ACCGACCAATGATGATTTGATTTCCCACTGGACTGGTATACGGAGTCACCTAGTGCAG | 15300 fluorescence intensity (a.u.) |
| GGTAACTGGTTAGGAAAATGATACAAGTCACATAATCAGGCGGAGTCACCTAGTGCAG | 4670 fluorescence intensity (a.u.) |
| CCATGTTTAATACTCTAAATTAGCATCCAAACATCCGATGCGGAGTCACCTAGTGCAG | 3560 fluorescence intensity (a.u.) |
| GTGATAGATTTGCATCCCTCTATATATCAATGGATATTATCGGAGTCACCTAGTGCAG | 20100 fluorescence intensity (a.u.) |
| CTTGAGATTGTAAACAGATGGCCATTGTCTGTTGTGTCAGCGGAGTCACCTAGTGCAG | 8650 fluorescence intensity (a.u.) |
